What is called CC50 is the concentration at which the toxic effect on the cells reaches its halfway point. High values mean lower toxicity to the cells, low ones greater toxicity to the cells.

Each structure is given as a SMILES string. Several values for one entry are separate records, joined by “and”; a condition that tells them apart may be missing. Equal values may be shown once. Some of the results follow. Further columns of the screen follow, without active or inactive calls. Most of these compounds were active or inconclusive in the main read-out, so they are no random draw. Potencies come from curve fits of mixed quality, noted in brackets.

Data on 61 compounds can be found in PubChem BioAssay AID1347044 (National Center for Advancing Translational Sciences (NCATS), 2019).
Tags describe the fitted curve by direction and shape.

The test in a line: Natriuretic polypeptide receptor (hNpr1) antagonism - Confirmation. Further: nearly all actives have a fitted effect of over 70% in size. The note with it: HEK293 hNpr1 cGMP GloSensor luminescence, ANP-stimulated; measured here: HEK-hNpr1 cytotoxicity, CellTiter-Glo. The essentials:
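HEK293 cells co-expressing hNpr1 and GloSensor cGMP sensor preloaded 2 h with 2% GloSensor reagent, compounds added 30 min at room temperature, then 0.1 nM hNppA for 20 min; luminescence read before and after agonist. Cytotoxicity counter-screen run.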
For orientation: ATP-based viability assays read luminescence as a measure of living cells.
As for `Cc1cc(N2CCCC(Cn3cc(Cc4ccccc4)nn3)C2)nc(N)n1` (stereo unspecified), the half-maximal cytotoxic concentration (CC50) is 4.85 µM [falling, full curve]. For `COc1ccc(C(=O)Nc2ccc(-c3noc([C@@H]4CCCN4CC4CCCCC4)n3)cn2)cc1`, the 50% cytotoxic concentration (CC50) was 6.85 µM [falling, partial curve]. To `O=C(CCC1CCCC1)N1CCC(Cc2nc(C3CCOCC3)no2)CC1` belongs 17.2 µM [falling, partial curve]; to `COc1ccccc1CC(=O)N1CCN(C(=O)c2nnn3c2COC(c2ccc(Cl)cc2)C3)CC1` (stereo unspecified), 19.3 µM [falling, partial curve]; to `NC(=O)Cc1c[nH]c2ncc(-c3ccc(Oc4ccccc4)cc3)cc12`, 19.8 µM [falling, partial curve]. In the case of `O=C(NCC1CC1)c1nc2c(o1)CCN(Cc1ccc(F)cc1F)CC2` it was 22.2 µM [falling, partial curve]; in that of `O=c1[nH]c(C2CCCN(Cc3ccc(-c4cccs4)cc3)C2)nc2ccc(F)cc12` (stereo unspecified), 27.3 µM [falling, partial curve] and 34.3 µM [falling, single point]; in that of `N#Cc1cccnc1N1CCC(CO)(Cc2ccccc2C(F)(F)F)CC1`, 30.6 µM [falling, single point].

`COc1ccc(CN2C[C@H]3CN(Cc4ccc5c(c4)OCCO5)CCN3C2=O)cc1`: the CC50 was 28 µM [falling, partial curve].

As to `N#Cc1ccc(CN2CCc3nc(C(=O)NCc4cccc(F)c4)oc3CC2)cc1`, the CC50 is 39.6 µM [falling, partial curve]. To `O=C(c1ccccc1)N1CCC2(CC1)N=C(c1ccc(Br)cc1)NO2` belongs 34.3 µM [falling, single point].

As to `CN(C)C(=O)c1ccc(CC2CCN(C(=O)CC3CCCCC3)CC2)cc1`, the CC50 was 21.7 µM [falling, partial curve]. To `CC(=O)N1CCN(c2nc3c(s2)CC(C(=O)Nc2cc(F)cc(F)c2)CC3)CC1` (stereo unspecified) belongs 19.3 µM [falling, partial curve]; to `COc1ccc(C(=O)N2CCN(c3cc(-c4ccc(F)cc4)[nH]n3)CC2)cc1`, 21.7 µM [falling, partial curve].

As for `CC(=O)Nc1ccc(S(=O)(=O)N[C@H]2CO[C@H]3[C@@H]2OC[C@@H]3Nc2nccc(-c3ccco3)n2)cc1`, the 50% cytotoxic concentration (CC50) is 24.3 µM [falling, partial curve]. In the case of `O=C(Nc1ccc(Cl)cc1)c1nc2c(o1)CCN(Cc1ccc3c(c1)CCO3)CC2` it was 25 µM [falling, partial curve].

`COc1ccc(C(=O)N2CCCN(c3cc(-c4ccccc4)[nH]n3)CC2)c(C)c1`: the CC50 is 17.2 µM [falling, partial curve]. To `Cc1ccc(S(=O)(=O)N2CCCC(CCC(=O)N3CCCCC3)C2)cc1` (stereo unspecified) belongs 27.3 µM [falling, single point]; to `Fc1ccc(-c2cnc3n2C[C@H](CNCc2ccccc2Cl)OC3)cc1`, 35.3 µM [falling, partial curve]. For `O=C(c1ccc(Cl)cc1)N1CCNc2cnc(Nc3ccccc3)nc2C1`, the 50% cytotoxic concentration (CC50) is 35.3 µM [falling, partial curve]. To `O=C(Nc1ccc(Cl)cc1Cl)c1cn2c(n1)CN(C(=O)c1ccccc1)CC2` belongs 21.7 µM [falling, partial curve]; to `O=C(Cc1c[nH]c2ncc(-c3ccc(F)c(Cl)c3)cc12)NCc1cccnc1`, 31.4 µM [falling, partial curve].

On to `CSc1ccc(CNC(=O)C2CCN(c3cc(C(F)(F)F)ncn3)CC2)cc1`, for which the half-maximal cytotoxic concentration (CC50) was 19.3 µM [falling, partial curve]. Take `Cc1cccc2c1nc1n2[C@@H](CNCc2ccc(S(C)(=O)=O)cc2)COC1`: the CC50 is 25 µM [falling, partial curve]. In the case of `CC(C)(C)OC(=O)N1CC(NCc2ccc(-c3ccc(OC(F)(F)F)cc3)cc2)C1` it was 17.2 µM [falling, partial curve]. In the case of `COc1cccc(-c2noc(CC3CCN(C(=O)CCCc4ccccc4)CC3)n2)c1` it was 24.3 µM [falling, partial curve]. In the case of `O=C(c1cc2ccccc2[nH]1)N1CCC2(C1)NC(=O)N(Cc1ccc(F)cc1)C2=O` (stereo unspecified) it was 34.3 µM [falling, single point]; in that of `O=C(N[C@H]1CO[C@H]2[C@@H]1OC[C@@H]2Nc1nccc(C2CCCC2)n1)c1ccccc1`, 35.3 µM [falling, partial curve]; in that of `O=C(NCc1ccccc1Cl)c1csc(N2CCN(c3ccc(F)cc3)CC2)n1`, 21.7 µM [falling, partial curve]. For `O=C(CCC1CCN(C(=O)c2cc(C3CC3)[nH]n2)CC1)N1CCC(Cc2ccccc2)CC1`, the CC50 is 21.7 µM [falling, partial curve]. To `Cc1nn(C)c(C)c1CCC(=O)N1CCC(Cc2noc(-c3ccc(F)cc3)n2)C1` (stereo unspecified) belongs 24.3 µM [falling, partial curve]. In the case of `Cc1nn(Cc2ccccc2)c(C)c1[C@@H]1C=C[C@@H](NS(=O)(=O)c2cccs2)C1` it was 31.4 µM [falling, partial curve]; in that of `CCc1nccn1CC(=O)NC(C)c1cnn(-c2ccccc2C)c1C` (stereo unspecified), 21.7 µM [falling, partial curve, poor fit]; in that of `O=C(NC1CCN(c2cc(-c3ccc(F)cc3)[nH]n2)CC1)c1ccc(F)c(Cl)c1`, 43.2 µM [falling, single point].

Take `COCc1cc(N2CCC(c3cccc(OC)c3OC)C2)ncn1` (stereo unspecified): the CC50 is 3.43 µM [falling, full curve]. Take `COc1ccc(-c2noc(CC3CCN(C(=O)c4ccc(OC)nc4OC)CC3)n2)cc1`: the cytotoxic concentration (CC50) is 6.85 µM [falling, full curve]. In the case of `CC(C)c1cccc(NC(=O)C2CCN(C(=O)c3ncn4c3COC(c3ccc(F)cc3)C4)CC2)c1` (stereo unspecified), the cytotoxic concentration (CC50) was 43.2 µM [falling, single point].

With `Cc1ccc(Cl)cc1NC(=O)c1cnc(-c2ccccc2)nc1-c1ccncc1`, the 50% cytotoxic concentration (CC50) was 38.5 µM [falling, single point].

For the compound `O=C(N1CC(Oc2ccc(-c3nc(-c4ccccc4)no3)cc2)C1)C1(c2ccccc2)CC1`, the CC50 is 24.3 µM [falling, partial curve]. In the case of `COc1ccc(CN2CC3(CCN(C(=O)Nc4cccc(C(F)(F)F)c4)CC3)C2=O)cc1` it was 21.7 µM [falling, partial curve]. With `FC(F)(F)C1CN(c2ccnc3ccc(Cl)cc23)CCO1` (stereo unspecified), the CC50 was 17.2 µM [falling, partial curve].

For `COc1ccc(CNC(=O)c2ccc(Cn3ccn4nc5c(c4c3=O)CCCC5)cc2)cc1`, the CC50 was 27.3 µM [falling, partial curve].

As to `COc1cccc(-c2cc(C3CCN(C(=O)c4ccccc4Br)CC3)[nH]n2)c1`, the CC50 is 21.7 µM [falling, partial curve]. To `COc1cccc(-c2noc(CC3CCN(C(=O)c4ccc(OC)c(OC)c4)CC3)n2)c1` belongs 15.3 µM [falling, partial curve]; to `Cc1nc(N2CCC(NC(=O)c3nccc4ccccc34)CC2)cc(C(F)(F)F)n1`, 15.3 µM [falling, partial curve]. In the case of `Cc1ccc(N2CCN(C(=O)C3CCCN(c4cnn(Cc5ccccc5)c(=O)c4)C3)CC2)cc1` (stereo unspecified) it was 17.2 µM [falling, partial curve]; in that of `CC1(COc2cccnc2)COc2ccc(C(=O)N3CCN(c4ccccn4)CC3)cc2N1` (stereo unspecified), 10.9 µM [falling, partial curve]. To `COc1nccc(N2CCC(CC(=O)NCc3ccc(F)c(Cl)c3)CC2)n1` belongs 19.3 µM [falling, partial curve]; to `COc1ccc(-c2noc(CC3CCN(C(=O)C4(c5ccc(OC)cc5)CC4)CC3)n2)cc1`, 5.44 µM [falling, partial curve]. For the compound `Cn1cc(CC(=O)N2CCCc3ncc(C(=O)N4CCC(c5ccccc5)CC4)cc32)c2ccccc21`, the cytotoxic concentration (CC50) is 21.7 µM [falling, partial curve]. To `FC(F)(F)c1cccc2c(N3CCOC(C(F)(F)F)C3)ccnc12` (stereo unspecified) belongs 17.2 µM [falling, partial curve]; to `COc1cccc(N2CCN(C(=O)c3cc4n(n3)CC(c3ccc(Cl)cc3)OC4)CC2)c1` (stereo unspecified), 27.3 µM [falling, partial curve, poor fit].

Turning to `CC1=NS(=O)(=O)N(C)C=C1C(=O)OCc1nc(-c2ccc(OC(F)(F)F)cc2)no1`, the cytotoxic concentration (CC50) was 17.2 µM [falling, partial curve]. In the case of `O=C1COc2ccc(Nc3ccc(Cl)cc3)nc2CN1Cc1nc2ccccc2s1` it was 49.8 µM [falling, single point]; in that of `CNC(=O)c1cccc(NC(=O)c2nc(C(O)c3ccccc3F)oc2C)c1` (stereo unspecified), 31.4 µM [falling, partial curve]; in that of `O=C(c1ccc(-c2ncc3cnc(-c4cccc(F)c4)cn23)cc1)N1CCc2cccnc21`, 7.89 µM [falling, full curve]. As for `CC(C)NC(=O)N1C2CCC1CN(c1ccc(C(F)(F)F)cc1)C2`, the half-maximal cytotoxic concentration (CC50) was 17.1 µM [falling, partial curve]. In the case of `Clc1cnccc1CN1CCNc2cnc(-c3ccccc3)cc2C1` it was 31.4 µM [falling, partial curve]. `O=C(NCc1cccc(F)c1)c1nc2c(o1)CCN(Cc1cc(F)ccc1F)CC2`: the CC50 is 39.6 µM [falling, single point].

Consider `O=C(NCc1ccc2c(c1)OCO2)c1csc(N2CCN(c3ccc(F)cc3)CC2)n1`, for which the cytotoxic concentration (CC50) was 19.3 µM [falling, partial curve]. In the case of `O=C1NN=C(c2cccnc2)C12CCN([S+](=O)([O-])c1cccc(C(F)(F)F)c1)CC2` it was 21.7 µM [falling, partial curve].
